Source: the supplement of paper PMC3334620
Whole data set: some 33,000 sequences, median “E-score (-0.5 to 0.5)” near -0.036, cut for the highest 2% near 0.37. The list shows a part of the results.

The sequences below were run against T1, Yer064c (UniProt P40041) (assay: PBM E-score (8-mer binding enrichment) (E-score (-0.5 to 0.5)); higher = stronger / more preferred TF binding; most listed sequences are background and not binding sites). Conditions: protein concentration: 200 nM; construct: GST-full length.
T1 sequence: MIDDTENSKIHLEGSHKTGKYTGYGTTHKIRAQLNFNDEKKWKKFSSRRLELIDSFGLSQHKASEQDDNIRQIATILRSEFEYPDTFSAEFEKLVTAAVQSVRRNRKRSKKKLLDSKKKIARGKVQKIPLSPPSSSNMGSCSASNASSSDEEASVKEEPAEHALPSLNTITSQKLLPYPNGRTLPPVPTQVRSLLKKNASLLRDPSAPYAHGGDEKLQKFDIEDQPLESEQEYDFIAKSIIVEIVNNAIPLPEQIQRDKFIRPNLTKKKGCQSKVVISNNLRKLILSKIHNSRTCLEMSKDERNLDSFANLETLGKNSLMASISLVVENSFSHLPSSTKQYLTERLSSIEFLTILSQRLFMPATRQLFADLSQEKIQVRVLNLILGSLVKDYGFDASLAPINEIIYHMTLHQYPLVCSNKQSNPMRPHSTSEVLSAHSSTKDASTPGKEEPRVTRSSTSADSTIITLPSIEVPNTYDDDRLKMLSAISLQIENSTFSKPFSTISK
Procedure, shortened: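 PURExpress in vitro transcription/translation supplied GST-tagged yeast transcription factors, either full-length or DNA-binding domain. Applied at about 100-200 nM to universal all-10-mer Agilent arrays double-stranded by primer extension, the bound protein was detected with fluorescent anti-GST. E-scores, modified Wilcoxon-Mann-Whitney statistics, were given by the Universal PBM Analysis Suite to ungapped eight-base words pooled with their reverse complements after masliner normalisation.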

Sequence	PBM E-score
GGAATCAA	0.257
GAGTACAA	0.28
ATAGTGAA	0.0239
CGGACAAC	-0.0568
CCCGAGCA	-0.215
CACATGAC	0.36
AATAATGT	-0.0639
CGAACGGA	0.109
ACAAACAT	-0.077
AAAAGCTG	-0.028
CCAGAGTC	0.38
GTAACGCA	-0.107
CCAGCTAA	0.00069
ATGTCTTA	0.0357
ATTCAGTA	0.13
ACACGGGT	0.0218
ACCTACAC	-0.0901
GTGATGAA	-0.129
GACCGGCA	-0.0532
TCCCAAGA	0.0948
GTAATGCA	-0.0968
AGCGGTGC	-0.322
GATATTAC	0.138
CGCGTTTC	-0.23
AATCGTAT	0.118

Sequence	PBM E-score
CTAGGCTA	-0.0986
AGCGGCAC	-0.239
CATGCAGA	-0.0406
AGGTGTAG	-0.00358
CGAGTAAA	0.0104
AAATATTC	-0.0241
GGGTAACC	0.0816
GTCTGGGA	-0.222
AAATAGAA	0.0475
CCCTTGGC	-0.182
GGCACTAC	-0.152
CGATTTAG	0.161
GTTCGTTA	0.0641
GCGCTAAA	-0.089
AAGTCGGT	0.0145
CGGTTGAG	0.107
GGTACTGA	0.0932
ACTATTCC	0.144
ATGTGCGG	-0.123
GAGTCGCC	0.439
ACGCCAAC	-0.129
ACCTTGCC	0.0427
TGCTGGAA	-0.0443
GGCCGAGA	-0.0289
GTTACTGA	0.0747

Sequence	PBM E-score
GGCGTTGA	-0.177
CAACACAG	0.0802
AACGCGTA	-0.111
AGAACACG	-0.0797
ATAAACAA	0.18
AGTTTGTG	-0.0474
CTCATGAA	0.202
AGGGATAT	-0.312
CAGGGGCA	-0.103
CTCCTTCA	0.0177
CCCATGGC	-0.0518
GTCAAACA	0.0911
AATTTGCA	-0.245
GCGTAACA	-0.103
CATGTGCC	-0.0206
CCGTATCC	-0.286
ATCCACGG	-0.0371
GTCCCGTA	-0.137
CACACTAC	-0.0561
AATTTAAC	0.0938
GTAGCATA	-0.262
TTAAAAAA	0.242
GTAAGGAA	-0.0495
CGAGCGAG	0.0814
CCGCTGGA	-0.207

Sequence	PBM E-score
CGTAATAC	0.0719
ACCCCGTG	-0.204
ATTATTCG	0.081
CTAATAAG	0.04
ACCTGCAT	-0.202
AGGCAGTC	0.213
GGTCCGCA	-0.264
ATCCTCAT	-0.0541
CCAACGTC	-0.197
CCTTCTCC	-0.264
CGACACGA	0.0537
AACGAAGC	-0.00137
CTCAATTA	0.235
ACATATTC	0.0348
CAGACGGA	0.0828
ACTAGCAT	0.0427
AAACCTGT	0.127
AGGCGTAA	-0.0376
AAGGCATG	-0.00376
CGCATACC	-0.0869
GAGTCGCA	0.438
CAGGTGAG	0.102
GGCAATGA	0.173
AAAGTTTC	-0.0603
CTGACTTC	0.392

Sequence	PBM E-score
GGCCCCAC	-0.343
CAAGTACA	-0.0184
CACGCTGG	-0.0438
CATCAGGG	-0.11
AGCAACCG	-0.0529
AATCGGCC	-0.161
CCGATCCA	-0.26
ACCCTCCA	-0.0773
AACGGGCT	-0.143
GGTGATTA	0.447
ATCAGACA	0.193
AACTTGCG	-0.056
CTAGTTAC	0.0522
GTACATTA	-0.114
AAGGATTA	0.0731
AGGTTGAC	0.167
AGAGATTA	0.117
ACCCGACG	-0.216
ACTAACCA	0.268
GCGCCTAA	0.0241
CATAGGAG	0.129
CTCACAGC	0.118
ACCAATTG	-0.0949
ATCTGCGG	-0.0265
CACCGAAA	0.0512

Sequence	PBM E-score
ACGCCTCC	-0.238
ATCCCCAG	-0.21
AGAACCGG	-0.11
AAATCCTA	0.0374
ACTGAAGA	0.17
AGCCGTTG	0.0482
AGGGGGAG	-0.257
CCGTTGCC	-0.095
CCCGGCGC	-0.18
ATCTGAAT	0.207
ACAGGGAG	-0.0887
GGCTGTCA	-0.292
AGTGCAGG	-0.0536
CCGAACTC	0.0416
AGATACCA	-0.0967
CCATGTAA	-0.0253
AGCGGAAA	-0.0127
ACTCTCAT	0.112
ATACCTTA	-0.0105
TAAGGCAA	0.00187
AGTGTTAG	0.0331
TCAGGCCA	0.0102
CCACGGCA	-0.163
AGTCATTG	0.475
CTCCAGGC	-0.0681

Sequence	PBM E-score
CTTGCGGC	-0.2
GGCAGCAA	-0.355
AATCCCGG	-0.0977
GCGAACGA	0.0793
CTTCTGCA	-0.191
GGCCGGCC	-0.232
ACACCCTC	0.0117
ATGCGACA	-0.0273
ACAATTTA	0.117
AACGCACG	-0.174
TCACACAA	0.16
GAATCTGA	0.195
AGCTTGCA	-0.165
ACGTCCGA	-0.1
AGTCTTAC	0.415
CACGAGCC	-0.037
AAGTTTGA	0.0608
AATCGTGT	0.11
AAGATGTC	-0.0873
CTTTCCAA	-0.037
AAGCACAT	0.0547
AGACGTCA	-0.0773
AACTCGGA	0.0305
CATGGTGG	-0.164
GCAGACCC	-0.364

Sequence	PBM E-score
CGTATTCC	-0.155
CGGCAGCC	-0.0567
AATCTTAC	0.183
AGTCCATA	0.151
ACTCGGCT	0.0356
GATCCGAC	-0.0318
GAGGACAA	-0.195
CCCCGCGA	-0.0453
CCCTGACA	-0.134
ATAGCCCA	0.0203
CAATTTGA	0.0752
TACAACGA	0.0811
CGGAGGTC	-0.14
CGAAACCC	-0.21
ACACGCTG	-0.18
ATAAGCTC	-0.245
ACTTCGCT	0.0871
CATAGTTA	0.139
CTGTCGGC	-0.202
AGCGTGGC	-0.00134
AATCTATG	0.0755
CCAGCTGC	-0.131
GATTTGAC	0.255
TATGGTGA	0.0193
CGATCCCG	-0.155

Sequence	PBM E-score
CTCCGCCA	-0.0652
GAGGGGCC	-0.285
AATATACT	0.121
AGTAGTAG	0.00559
CCTTACAA	-0.221
ACTTGCCC	-0.0306
GCTCAGCC	-0.0368
GGGACCAA	-0.178
AAGGATTC	0.0961
CAAACTAA	0.0575
ACCTTCCC	-0.2
CTAGCACC	-0.122
AAGTTCAG	-0.0424
GACTGGTA	0.225
AGCACTTG	-0.248
AAACGCAG	-0.00808
AGTTAAGA	0.129
CGCTGACC	-0.0261
GACCATAC	-0.0558
GGCGACCC	-0.364
ACGTTGGC	-0.144
CGTATTGC	-0.194
CGGGAATA	-0.0781
AGCAGAAC	-0.095
GGGGTTAC	-0.203

Sequence	PBM E-score
CTTGGACC	-0.357
AGTCGTGA	0.375
CGGGCGAC	-0.0222
CTATGTGC	0.00946
ACTAGAGA	0.127
AGCATGCG	-0.0603
CCGGTCTC	-0.253
AGTACTCA	0.393
CCGGGATA	-0.158
CGCCGTCC	-0.0611
GGGGGTTA	-0.187
GTACCGGA	-0.263
CTACTATA	0.0822
ACAAGGAA	-0.0172
GCGCGCAA	-0.0743
AAGTTGGT	0.091
ACAATCCC	0.0868
CAAGTGTA	0.0392
AAGATGGG	-0.0112
CGTTCTAA	0.0916
TCACCCAA	0.103
GCCGTCGA	-0.0942
GGCTCCCA	-0.115
ATTGCCGC	0.0328
ATGGAGGG	-0.0793

Sequence	PBM E-score
CAACCACC	0.0883
AGTCCATG	0.276
GCTGATCC	-0.0285
ACCTGAAC	-0.0686
AGAATAAC	-0.016
AAAATATC	0.105
CGGTACAA	-0.19
AGAAGCCT	-0.201
CGGCCCGC	-0.138
CGGTAGAG	-0.118
AGGCTGGC	-0.145
AGGCCTTG	-0.117
AAACAACG	-0.108
GAGGTCGA	-0.0536
GTGGATAA	-0.144
AACAACCT	-0.071
AGGGTATC	-0.18
AACACGTC	-0.178
GGTAGAAA	-0.226
GCATCTCC	-0.281
CGCCAACC	-0.206
AGCGAAAC	0.0885
ACACTCTC	0.0479
CTTTTTCC	-0.00626
CCGCCACA	-0.232

Sequence	PBM E-score
AGATATAT	-0.0196
ATTGATCA	0.203
AGTGACCC	-0.0592
CGCGATTA	0.23
CCCAAACA	0.0193
AATATCGC	-0.11
CCACGCGC	-0.161
CCGTTGTA	-0.0298
GCGTGTAC	-0.00824
GAGTTTCA	0.219
GATTTCGC	0.15
AGTACGTC	0.0614
CACGCAGC	-0.179
ATAGATCG	-0.0521
AATACTTG	-0.148
CTCTAAAA	0.159
CAAGTTAG	0.173
GCAGCTAC	-0.0944
CGCCTAAA	-0.00255
AGGTCAGC	-0.0836
CCCATGCG	-0.224
TATATCAA	0.0841
AAGATTTA	0.136
CAATGTAA	-0.13
CAAGTGAG	0.0765

Sequence	PBM E-score
AATAGAGT	0.0996
TAAAACGA	0.146
ATGTACCC	-0.101
ACAACCAG	0.032
AGCAGGGA	-0.0138
AAAACCGA	-0.00557
CCTGAAGA	0.0145
GAACGACC	0.0228
TCATGACA	0.248
ATTAATCA	0.441
TCCCGTCA	-0.0314
CGCGATGA	0.205
AATCGAGG	-0.00165
AATGTCTG	-0.144
CTCCACAG	-0.0508
CAGCAGAA	-0.111
CCTGCGAA	-0.056
GCGTCGAA	-0.138
CCCATCCC	-0.0882
CTAACTAG	0.184
AACATGAG	0.23
ATGGCAAA	-0.101
AAACATCC	-0.00356
CTACACGA	0.148
AATGTATC	0.0947

Sequence	PBM E-score
AGAAGAAC	-0.146
CGCATGAA	-0.00295
AGGCACAT	-0.117
CACACACA	0.0437
ATGTAGCG	-0.143
ACCTCTCG	-0.306
AGGCAGTG	-0.0727
ATAGAGGA	-0.0557
ACCGGCCA	-0.214
GAGATCCC	-0.174
AGGCCGCC	-0.165
ACCTCAGA	-0.112
GAGATAAA	-0.0124
AATGGATC	-0.0133
AGTCACAT	0.469
TGTGGTAA	-0.0274
CGTTAAGA	0.0746
TAATCGGA	0.163
ATCCTCGA	0.0481
